The other results are listed elsewhere or left out. Cleavage of a single-stranded DNA pool by Rep nickase domains was read by sequencing (3 µM enzyme, 1 h, 37 °C); shown is the middle of each 90-letter strand. Uncut reads are compared with the no-enzyme pool on a log2 scale; uncut sequences lie near 0, cut ones below; no hit call is given. Shares of all reads are compared; uncut strands gain when others are lost, and binding without cutting may add a little.
Legend:
Experiment in all cases: uncleaved DNA left, log2 of reads against the no-enzyme library (log2 ratio); higher = less cleavage (more negative = more Rep cleavage of the k-mer); sequences stand for … in CTCGTCCG…ACCGGAGA
[1] = tested on: T1, Rep nickase domain of Muscovy duck circovirus
T1 sequence (protein, residues 1-111, tag omitted): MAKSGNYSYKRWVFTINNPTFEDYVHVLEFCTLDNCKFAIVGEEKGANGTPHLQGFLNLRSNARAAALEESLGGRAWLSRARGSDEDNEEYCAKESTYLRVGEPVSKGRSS
Protocol: (§1)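 A pool of 90-nt single-stranded DNAs with seven random bases just before the constant AC of the nick site (name = the seven bases) was cut by 3 µM recombinant His6-SUMO-tagged Rep nickase domain (300 nM DNA, 50 mM HEPES pH 8.0, 50 mM NaCl, 1 mM MnCl2, 1 h, 37 °C, three replicates). Uncut DNA was amplified and sequenced.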

[2] = tested on: T2, Rep nickase domain of banana bunchy top virus
T2 sequence (protein, residues 1-94, tag omitted): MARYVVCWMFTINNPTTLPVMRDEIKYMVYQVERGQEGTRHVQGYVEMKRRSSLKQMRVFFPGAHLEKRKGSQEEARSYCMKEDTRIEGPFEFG
Protocol: as §1

[3] = tested on: T3, Rep nickase domain of cabbage leaf curl virus
T3 sequence (protein, residues 1-116, tag omitted): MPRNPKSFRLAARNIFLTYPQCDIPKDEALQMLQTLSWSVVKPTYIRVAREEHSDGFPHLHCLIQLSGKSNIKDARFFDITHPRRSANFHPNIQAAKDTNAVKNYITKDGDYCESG
Protocol: as §1

[4] = tested on: T4, Rep nickase domain of chickpea chlorotic dwarf virus
T4 sequence (protein, residues 1-124, tag omitted): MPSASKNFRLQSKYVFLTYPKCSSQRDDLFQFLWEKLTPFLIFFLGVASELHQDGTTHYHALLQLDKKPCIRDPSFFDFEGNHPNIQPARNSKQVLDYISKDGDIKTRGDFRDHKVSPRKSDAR
Protocol: as §1

[5] = tested on: T5, Rep nickase domain of faba bean necrotic yellows virus
T5 sequence (protein, residues 1-98, tag omitted): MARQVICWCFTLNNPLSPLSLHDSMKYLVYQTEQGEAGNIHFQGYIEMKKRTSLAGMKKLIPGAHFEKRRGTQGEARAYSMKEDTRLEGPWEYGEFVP
Protocol: as §1

[6] = tested on: T6, Rep nickase domain of maize striate mosaic virus
T6 sequence (protein, residues 1-117, tag omitted): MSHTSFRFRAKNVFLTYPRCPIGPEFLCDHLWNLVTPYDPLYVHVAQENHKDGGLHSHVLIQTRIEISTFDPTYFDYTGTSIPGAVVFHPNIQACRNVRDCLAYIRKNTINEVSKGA
Protocol: as §1

[7] = tested on: T7, Rep nickase domain of porcine circovirus 2
T7 sequence (protein, residues 2-116, tag omitted): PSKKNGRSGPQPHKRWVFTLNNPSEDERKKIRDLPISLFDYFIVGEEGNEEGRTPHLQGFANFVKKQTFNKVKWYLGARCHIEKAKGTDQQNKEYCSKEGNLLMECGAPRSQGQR
Protocol: as §1

[8] = tested on: T8, Rep nickase domain of tomato yellow leaf curl virus
T8 sequence (protein, residues 1-136, tag omitted): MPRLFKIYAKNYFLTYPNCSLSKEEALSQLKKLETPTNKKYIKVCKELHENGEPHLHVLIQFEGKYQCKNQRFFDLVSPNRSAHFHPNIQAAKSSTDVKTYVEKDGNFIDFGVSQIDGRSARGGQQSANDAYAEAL
Protocol: as §1

[9] = tested on: T9, Rep nickase domain of wheat dwarf virus
T9 sequence (protein, residues 1-137, tag omitted): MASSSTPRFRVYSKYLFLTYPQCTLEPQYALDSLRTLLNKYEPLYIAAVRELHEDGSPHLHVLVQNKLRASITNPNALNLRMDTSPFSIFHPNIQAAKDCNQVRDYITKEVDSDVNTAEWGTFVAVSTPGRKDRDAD
Protocol: as §1

Sequence	uncleaved DNA left (log2) [1]	uncleaved DNA left (log2) [2]	uncleaved DNA left (log2) [3]	uncleaved DNA left (log2) [4]	uncleaved DNA left (log2) [5]	uncleaved DNA left (log2) [6]	uncleaved DNA left (log2) [7]	uncleaved DNA left (log2) [8]	uncleaved DNA left (log2) [9]
ACCCCTT	0.0797	0.025	0.201	-1.81	0.119	-0.0131	-0.111	0.00301	-0.011
TCTAGGC	0.142	-0.0299	0.415	0.809	0.0366	0.518	0.123	0.0594	0.128
CTTTTCG	-0.0733	-0.0605	-0.699	0.397	-0.0362	-1.24	0.0188	-0.0327	-0.121
GGGCGAT	0.0749	0.00061	0.825	1.82	0.0442	2.17	0.184	0.00849	0.0563
TGGTCCT	-0.0975	0.0421	0.271	-0.666	-0.0496	0.992	-1.69	0.126	0.189
AGTCGCA	-0.0628	-0.135	-0.176	-0.299	-0.0913	-0.518	-0.69	-0.089	0.0012
GTGAACA	0.136	0.195	0.415	1.11	0.0443	1.93	0.107	0.126	0.213
CAAGGTT	-0.00897	-0.0142	-0.14	0.459	-0.057	1.67	-0.0861	-0.064	-0.0958
CTTTAAC	-0.131	-0.0629	-0.46	-2.24	-0.122	-0.925	-0.0524	-0.0651	-0.0835
TGCAGGG	0.0443	0.0346	-0.0301	0.325	-0.0316	-0.163	0.1	-0.115	-0.103
CAATCAC	0.00305	0.117	-1.82	-1.97	0.0215	-0.746	0.0922	0.0508	-0.32
GGCACCT	0.0548	-0.0345	0.573	1.07	0.0269	1.86	0.0464	0.0793	0.103
TAACCAC	-0.122	-0.00268	-0.419	-2.27	0.0263	-0.53	-0.657	-0.0203	-0.178
GTCATGA	-0.0199	-0.0203	0.228	0.757	-0.0891	1.55	0.00643	-0.0469	0.0789
GCCAAAC	0.000633	0.0506	0.0473	0.43	0.102	-0.0999	0.159	0.0464	0.0638
GGCTGCC	-0.015	-0.198	0.137	0.766	-0.1	0.814	0.0853	-0.107	-0.0024
ATTGTCA	-0.0286	0.0588	-0.302	-1.1	0.0776	-1.02	-0.122	0.0628	0.0278
GCATCCC	0.021	-0.0273	0.000706	0.379	-0.063	0.255	-0.000208	0.0443	0.00838
CCGAGGA	-0.0186	-0.0631	0.306	0.605	0.0243	0.301	-0.0848	-0.0637	0.103
ATGGGGG	0.0101	-0.14	-0.13	0.0446	-0.00614	-0.441	0.109	-0.125	-0.235

Sequence	uncleaved DNA left (log2) [1]	uncleaved DNA left (log2) [2]	uncleaved DNA left (log2) [3]	uncleaved DNA left (log2) [4]	uncleaved DNA left (log2) [5]	uncleaved DNA left (log2) [6]	uncleaved DNA left (log2) [7]	uncleaved DNA left (log2) [8]	uncleaved DNA left (log2) [9]
AGTCCAT	-0.0665	-0.049	0.207	0.242	-0.143	0.237	-2.17	0.0379	0.0628
AGAGACA	-0.0273	0.0825	0.209	0.825	-0.0176	1.57	0.165	0.00298	0.0501
AAACTAG	0.172	0.0839	-0.59	-0.832	0.0815	-1.27	0.217	0.1	0.0274
TTTACCA	0.0212	0.0483	0.0742	-2.05	-0.1	0.428	-0.498	0.0662	0.133
GGTGGAG	0.0679	0.0692	0.02	0.474	0.168	0.101	0.376	0.149	0.168
AACATAC	0.0722	0.00947	-0.103	-0.861	0.0576	-1.07	0.145	-0.00818	0.00125
GACCCAC	-0.0712	-0.0196	0.273	0.914	-0.104	0.871	-0.0673	0.0191	0.127
CGCAAAT	-0.0112	0.151	0.0278	-0.345	0.022	-0.31	-0.441	-0.0985	0.00708
AGGCAGG	0.181	0.0504	0.103	0.477	0.129	-0.00135	0.188	-0.0541	0.00308
GAGCGGA	0.0663	0.0994	0.0792	0.439	-0.0312	0.469	-0.403	0.0271	0.0122
TCTTTTA	-0.0576	-0.00788	0.109	-1.38	0.0242	-0.243	-0.434	0.018	-0.0387
GAAGTGG	0.0695	-0.095	0.0289	0.397	0.0252	-0.0239	0.137	0.0432	-0.0445
AGCAGCT	0.00701	0.0898	-0.0521	0.0927	-0.04	0.262	0.00404	-0.0591	-0.00959
TGTATCA	0.0179	0.149	0.505	0.62	0.0364	1.29	0.0347	0.179	0.203
AAAACCA	-0.0892	-0.0575	-0.213	-2.5	-0.023	-0.504	-0.464	-0.0727	-0.0479
GGACACG	0.0648	0.146	0.368	1.05	-0.0246	0.611	0.24	0.0153	0.125
TCATATT	-3.78	-2.68	-4.09	-3.57	-0.653	-3	-3.84	-0.163	-3.55
CAGGCCA	0.0533	0.208	0.218	-0.642	0.098	0.178	-0.0339	0.204	0.202
TTCCTTT	-0.0685	-0.0929	-0.132	-1.97	-0.091	-0.425	-0.526	-0.0118	-0.209
GTCCAAT	0.0299	0.214	0.354	1.04	0.146	1.63	0.123	0.199	0.273

Sequence	uncleaved DNA left (log2) [1]	uncleaved DNA left (log2) [2]	uncleaved DNA left (log2) [3]	uncleaved DNA left (log2) [4]	uncleaved DNA left (log2) [5]	uncleaved DNA left (log2) [6]	uncleaved DNA left (log2) [7]	uncleaved DNA left (log2) [8]	uncleaved DNA left (log2) [9]
CTTGGAT	0.148	0.123	0.285	1.64	0.0435	1.87	0.119	-0.0678	0.123
GGGATTA	0.0645	0.251	0.868	2.08	0.148	2.35	0.266	0.131	0.281
GACCCGT	-0.00359	-0.0599	0.531	0.836	-0.067	0.63	-0.000446	0.0316	0.084
CCACCCA	-0.204	-0.0369	-0.0919	-1.18	-0.0992	-0.64	-0.73	-0.0403	-0.111
GTACTCC	-0.0861	-0.00674	0.199	0.6	-0.0192	1.55	0.0769	-0.0035	-0.0279
CGTTCTA	-0.0192	0.0464	0.113	-0.28	-0.0616	-0.0292	-0.201	0.0849	-0.0487
ACGTTCC	0.0507	0.0287	0.0549	0.22	0.0476	-0.0667	0.0637	-0.0465	0.018
TTCCCGT	-0.00985	-0.0877	-0.195	-0.807	-0.132	-0.765	-0.0889	-0.0551	-0.146
GAGGCGG	-0.0545	0.00999	0.162	0.572	0.00568	0.531	0.181	-0.0892	0.0213
GGGCGGG	0.26	0.185	0.869	1.73	0.213	2.11	0.332	0.0106	0.159
AGTTATT	-3.5	-3.91	-2.71	-2.75	-2.94	-0.332	-4.45	0.0762	-2.3
TGTAGAC	0.145	0.2	0.551	0.971	0.206	1.02	0.229	0.26	0.237
CGATGCC	-0.0651	0.00524	-0.18	0.136	-0.109	-0.223	-0.129	0.0377	0.0559
TAATGAG	0.18	0.0112	-1.2	-1.3	0.17	-1.02	0.24	0.16	-0.0229
AAAGTAC	0.0291	-0.0697	-0.136	-0.482	0.0704	-0.692	-0.0375	-0.0476	0.00478
TCCTCCA	-0.122	-0.13	-0.00212	-0.857	-0.102	0.189	-0.279	-0.125	-0.131
ATACTGA	0.0661	0.0466	0.0293	0.281	0.0579	0.477	0.121	-0.0893	0.0839
AAGTTAC	-0.0556	-0.163	-0.344	-1.88	-0.0191	-0.706	-1.48	-0.154	-0.0524
GTCTTTC	-0.0112	0.0724	0.337	0.897	-0.111	1.62	0.102	0.0492	0.0223
TGACTGA	-0.0128	-0.0898	-0.00442	0.743	-0.0931	1.6	-0.0243	-0.058	-0.00184

From the supplement of paper PMC7826260
